# Measured values taken from the supplement of paper PMC7826260.
# This is one part of the list. Cleavage of a single-stranded DNA pool by Rep nickase domains was read by sequencing (1 h at 37 °C, 3 µM enzyme); the outer parts of the 90-letter strands are left off. The score is log2 (uncut reads / reads without enzyme); strong cutting gives strongly negative numbers. There is no active / inactive call. Reads are scaled to the total; values above 0 arise when much of the pool is cut.
# Tests used:
# Assay in all cases: uncleaved DNA left, log2 of reads against the no-enzyme library (log2 ratio); higher = less cleavage (more negative = more Rep cleavage of the k-mer); sequences stand for … in CTCGTCCG…ACCGGAGA
# [1] = system: T1, Rep nickase domain of Muscovy duck circovirus
# T1 sequence (residues 1-111, tag not shown): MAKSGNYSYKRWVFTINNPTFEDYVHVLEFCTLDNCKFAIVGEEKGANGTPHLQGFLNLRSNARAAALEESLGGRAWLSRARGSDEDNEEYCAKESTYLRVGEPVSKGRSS
# Procedure: (§1)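 A pool of 90-nt single-stranded DNAs with seven random bases just before the constant AC of the nick site (name = the seven bases) was cut by 3 µM recombinant His6-SUMO-tagged Rep nickase domain (300 nM DNA, 50 mM HEPES pH 8.0, 50 mM NaCl, 1 mM MnCl2, 1 h, 37 °C, three replicates). Uncut DNA was amplified and sequenced.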
# [2] = system: T2, Rep nickase domain of banana bunchy top virus
# T2 sequence (residues 1-94, tag not shown): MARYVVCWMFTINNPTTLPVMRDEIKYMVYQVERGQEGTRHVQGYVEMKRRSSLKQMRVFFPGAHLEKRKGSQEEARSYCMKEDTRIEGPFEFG
# Procedure: as §1
# [3] = system: T3, Rep nickase domain of cabbage leaf curl virus
# T3 sequence (residues 1-116, tag not shown): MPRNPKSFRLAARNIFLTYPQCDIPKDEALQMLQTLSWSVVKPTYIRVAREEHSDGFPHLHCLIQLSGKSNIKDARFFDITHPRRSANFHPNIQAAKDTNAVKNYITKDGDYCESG
# Procedure: as §1
# [4] = system: T4, Rep nickase domain of chickpea chlorotic dwarf virus
# T4 sequence (residues 1-124, tag not shown): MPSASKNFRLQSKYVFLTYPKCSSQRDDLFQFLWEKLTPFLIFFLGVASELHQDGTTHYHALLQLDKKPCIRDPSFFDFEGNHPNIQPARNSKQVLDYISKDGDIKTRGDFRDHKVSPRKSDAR
# Procedure: as §1
# [5] = system: T5, Rep nickase domain of faba bean necrotic yellows virus
# T5 sequence (residues 1-98, tag not shown): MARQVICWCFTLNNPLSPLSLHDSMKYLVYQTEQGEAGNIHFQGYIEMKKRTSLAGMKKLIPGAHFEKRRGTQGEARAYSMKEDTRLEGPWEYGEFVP
# Procedure: as §1
# [6] = system: T6, Rep nickase domain of maize striate mosaic virus
# T6 sequence (residues 1-117, tag not shown): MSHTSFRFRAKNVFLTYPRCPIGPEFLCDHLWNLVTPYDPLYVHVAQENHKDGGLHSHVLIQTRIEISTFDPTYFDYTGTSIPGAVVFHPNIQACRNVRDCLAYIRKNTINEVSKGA
# Procedure: as §1
# [7] = system: T7, Rep nickase domain of porcine circovirus 2
# T7 sequence (residues 2-116, tag not shown): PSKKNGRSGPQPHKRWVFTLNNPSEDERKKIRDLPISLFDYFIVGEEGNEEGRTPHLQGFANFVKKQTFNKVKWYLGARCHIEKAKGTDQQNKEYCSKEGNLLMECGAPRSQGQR
# Procedure: as §1
# [8] = system: T8, Rep nickase domain of tomato golden mosaic virus
# T8 sequence (residues 1-124, tag not shown): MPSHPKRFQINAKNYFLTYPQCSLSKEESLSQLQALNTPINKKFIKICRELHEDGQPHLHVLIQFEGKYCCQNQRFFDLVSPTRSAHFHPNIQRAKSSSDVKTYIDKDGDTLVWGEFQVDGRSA
# Procedure: as §1
# [9] = system: T9, Rep nickase domain of tomato yellow leaf curl virus
# T9 sequence (residues 1-136, tag not shown): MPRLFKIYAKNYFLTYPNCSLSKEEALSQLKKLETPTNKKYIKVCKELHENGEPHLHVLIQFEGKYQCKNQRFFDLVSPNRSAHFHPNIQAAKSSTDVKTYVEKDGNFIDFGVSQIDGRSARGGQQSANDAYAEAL
# Procedure: as §1
# [10] = system: T10, Rep nickase domain of wheat dwarf virus
# T10 sequence (residues 1-137, tag not shown): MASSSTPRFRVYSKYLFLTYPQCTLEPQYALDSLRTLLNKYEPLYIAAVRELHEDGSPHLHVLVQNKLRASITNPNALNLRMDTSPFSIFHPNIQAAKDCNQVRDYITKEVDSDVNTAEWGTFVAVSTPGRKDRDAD
# Procedure: as §1
Sequence,uncleaved DNA left (log2) [1],uncleaved DNA left (log2) [2],uncleaved DNA left (log2) [3],uncleaved DNA left (log2) [4],uncleaved DNA left (log2) [5],uncleaved DNA left (log2) [6],uncleaved DNA left (log2) [7],uncleaved DNA left (log2) [8],uncleaved DNA left (log2) [9],uncleaved DNA left (log2) [10]
AATAGAT,0.042,-0.0622,0.117,1.2,-0.213,1.55,-0.0386,0.026,-0.145,0.0572
TAGGGTG,-0.0202,-0.0207,-0.374,-0.476,0.0568,-0.528,0.0424,0.0378,0.0419,-0.114
CTCCGTG,-0.143,-0.0378,-0.556,-0.722,-0.13,-1.23,0.0268,-0.0549,0.0831,-0.184
AACTTCT,-3.51,-2.64,-0.935,-3.01,0.00514,-1.11,-3.75,-0.0499,0.0664,-0.175
TTGTCTC,-0.17,-0.215,0.0752,-0.099,-0.168,-0.287,-0.442,-0.221,-0.088,-0.165
GGCGTTC,0.133,0.0758,0.577,1.18,0.0232,1.6,0.187,-0.0568,0.0341,0.17
ACAAAGT,0.0955,0.0291,-0.0722,-0.458,0.137,-1.06,0.208,0.123,0.0577,0.00975
TGCTGCC,0.0289,-0.0707,-0.0605,0.13,-0.0882,-0.195,-0.00811,-0.0936,-0.15,-0.0886
GAGAAAA,0.162,0.219,0.467,1,0.0657,1.24,-0.128,0.0911,0.165,0.278
CTTGAAC,0.0329,-0.115,0.00616,-0.464,-0.0531,-0.757,-0.0331,-0.0449,-0.13,-0.0152
ACAGTTA,0.26,0.151,0.0515,-1.28,0.349,-0.314,0.158,0.346,0.257,0.211
CGCGGAT,0.16,0.00364,0.322,1.36,-0.000227,1.72,0.173,0.11,-0.0311,-0.0261
GTATAAA,0.134,0.129,0.427,0.954,0.238,1.67,0.219,0.123,0.0842,0.277
CTGAGTA,0.0575,0.00288,-0.225,-0.766,0.0172,-0.74,-0.267,-0.0281,-0.0511,-0.0416
CATCAGT,-0.0145,0.0465,-0.568,-1.4,-0.0236,-1.24,-0.0392,-0.119,-0.0215,-0.126
